The text below walks through data of PubChem BioAssay AID1508624 (National Center for Advancing Translational Sciences (NCATS), 2021).

Where “and” joins values, the source holds several entries; their conditions need not be identical. Identical values can stand only once. In all, about 48,000 compounds went through this assay and about 120 (0.25%) were called active. Roughly 4% stayed inconclusive and do not appear here. The call rests on the fitted dose curve; in most records, active means well fitted activation curve with a large enough effect; inconclusive means small, poorly fitted or top-dose-only effect, or another doubt; inactive means no such curve, though single readings can be large or run the other way. Some of the results follow.

This assay is described as follows: Primary qHTS for Identification of Small Molecule Activators of Huntingtin-Antisense Promoter Activity. Further: nearly all actives have a fitted effect of over 55% in size. To be noted: HEK293 HTT-AS promoter firefly luciferase reporter, 24 h; at 57.5 µM (top of the series) unless noted. A digest of the protocol: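 Firefly luciferase readout (Dual-Glo, 10 min RT) after 24 h, 37 °C compound exposure (final up to 57.5 uM) of HEK293 reporter cells cultured 24 h beforehand; PTC124 at 50 uM final as control inhibitor; activity scaled vehicle 0%, zero RLU -100%.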
(In general: qHTS replaces the single test concentration by a dilution series.)
For `CCC1(c2ccccc2)C(=O)N(COC)C(=O)N(COC)C1=O`, the activity change, positive = activation was inactive: -5.68%.

For `N#Cc1cc([N+](=O)[O-])ccc1NC(=O)c1cccn(Cc2cccc(F)c2)c1=O`, the activity change, positive = activation was inactive: -13.7% [at 57.5 µM, percent change from vehicle, -100% = no light].

As to `C#C[C@]1(O)CC[C@H]2[C@@H]3CCC4=CC(=O)CCC4=C3C=C[C@@]21CC`, the activity change, positive = activation was inactive: -39.7%.

For the compound `O=C(CCl)c1ccc(Cl)cc1Cl`, the activity change, positive = activation is inactive: -8.36%.

As to `O=C(Nc1ccc2c(c1)OCCO2)c1cccn(Cc2cccc([N+](=O)[O-])c2)c1=O`, the activity change, positive = activation was inactive: -12.3%.

For `CSc1ccc(C(c2c(O)c3ccccc3oc2=O)c2c(C)n(C)n(-c3ccccc3)c2=O)cc1` (stereo not drawn), the activity change, positive = activation is inactive: -25.4% [at 57.5 µM, percent change from vehicle, -100% = no light].

As for `CC(=O)[C@H]1CC[C@H]2[C@@H]3CC[C@H]4C[C@](C)(O)CC[C@]4(C)[C@H]3CC[C@]12C`, the activity change, positive = activation was inactive: -0.771%.

`CN1CCN(c2csc3ccc(F)cc3c2=O)CC1`: the activity change, positive = activation was inactive: 10.1% [at 57.5 µM, percent change from vehicle, -100% = no light].

Take `CN(C)CCc1ccc(O)cc1`: the activity change, positive = activation was inactive: -10.4% and inactive: -9.26%.

For `CCOC(=O)C1(c2ccccc2)CCN(CCC(C#N)(c2ccccc2)c2ccccc2)CC1`, the activity change, positive = activation was inactive: -38.1%.

In the case of `NC1=NC(=O)C(c2ccccc2)O1` (stereo not drawn), the activity change, positive = activation is inactive: -3.04%.

With `CCOc1ccc(-n2c(/C=C/c3ccccc3)nc3ccccc3c2=O)cc1`, the activity change, positive = activation was inactive: -10.1% [at 57.5 µM, percent change from vehicle, -100% = no light].

Regarding `N#Cc1cc2c(nc1SCC(=O)Nc1cccc(F)c1)C1CCN2CC1`, the activity change, positive = activation was inactive: -39.4% [at 57.5 µM, percent change from vehicle, -100% = no light].

As for `C[C@]12CC[C@H]3[C@@H](CCC4=CC(=O)CC[C@@]43C)[C@H]1CC[C@H]2O`, the activity change, positive = activation is inactive: -16%.

In the case of `COC1=C[C@@H]2[C@@H]3Cc4ccc(OC)c(O)c4[C@]2(CCN3C)CC1=O`, the activity change, positive = activation is inactive: -59.3%.

Regarding `COc1ccc(N(C(=O)Oc2c(C)cccc2C)c2ccnc(Nc3ccc(N4CCN(C)CC4)cc3)n2)c(OC)c1`, the activity change, positive = activation is inactive: -37.1%.

On to `Cc1ccc(NC(=O)N(Cc2ccc3c(c2)OCO3)C2CCN(Cc3ccccc3)CC2)cc1F`, for which the activity change, positive = activation was inactive: -19.7%.

Regarding `O=C(Nc1ccc(Br)cc1)c1cc(Br)cc(Br)c1O`, the activity change, positive = activation was inactive: 11.2%.

Consider `c1ccc2c(CN3CCNCC3)cccc2c1`, for which the activity change, positive = activation is inactive: -9.95%.

For the compound `C#CCN(C)[C@H](C)Cc1ccccc1`, the activity change, positive = activation was inactive: -14.6% and inactive: -1.58%.

Turning to `Cc1cc(C)cc(-n2c(/C=C/c3cccc(F)c3)nc3ccccc3c2=O)c1`, the activity change, positive = activation is inactive: -35.6%.

In the case of `CC1COC2(c3ccccc3Cl)c3cc(Cl)ccc3NC(=O)CN12` (stereo not drawn), the activity change, positive = activation is inactive: -14.6%.

Regarding `COc1ccc(NC(=O)CN2C(=O)C(C)N=C(c3ccccc3F)c3cc(Cl)ccc32)c(OC)c1` (stereo not drawn), the activity change, positive = activation was inactive: -25.7% [at 57.5 µM, percent change from vehicle, -100% = no light].

In the case of `CC(C)NCC(O)c1ccccc1Cl` (stereo not drawn), the activity change, positive = activation was inactive: -5.98%.

With `Cc1nnc(NC(=O)c2cccn(Cc3ccc(Cl)cc3)c2=O)s1`, the activity change, positive = activation is inactive: -9.06%.

As to `O=C(Nc1ccccc1-c1ccc(Cl)cc1)c1cccnc1Cl`, the activity change, positive = activation is inactive: -14.5% [at 116 µM].

As for `CCN1C[C@]2(OC(=O)c3ccccc3NC(C)=O)CC[C@H](OC)[C@@]34[C@H]5CC6[C@@H](OC)C[C@](O)(C(C[C@@H]23)[C@@H]14)[C@@]5(O)[C@@H]6OC`, the activity change, positive = activation is inactive: -27.4%.

`COc1ccc2c(C(=O)c3ccc(Cl)cc3)c(C)n(CC(=O)O)c2c1`: the activity change, positive = activation is inactive: -8.91%.

As to `CCC(C(N)=O)N1CCCC1=O` (stereo not drawn), the activity change, positive = activation is inactive: -7.16%.

With `CC(=O)[O][Hg][c]1ccccc1`, the activity change, positive = activation is inactive: -95.6%.

For `Cc1ccc(-n2c(/C=C/c3ccc(Br)s3)nc3ccccc3c2=O)cc1C`, the activity change, positive = activation was inactive: -29.1%.

As to `ClC1=C(Cl)C2(Cl)C(CBr)CC1(Cl)C2(Cl)Cl` (stereo not drawn), the activity change, positive = activation is inactive: -6.53% [at 57.5 µM, percent change from vehicle, -100% = no light].

Consider `O=c1[nH]c2ccccc2n1C1CCN(CCCC(c2ccc(F)cc2)c2ccc(F)cc2)CC1`, for which the activity change, positive = activation is inactive: -38.3%.

Regarding `CCN(CCO)CCn1c(Cc2ccccc2)nc2c1c(=O)n(C)c(=O)n2C`, the activity change, positive = activation was inactive: -2.35%.

In the case of `COc1ccc(OC)c(NC(=O)Cn2cc(C(=O)c3ccccc3F)c3ccccc32)c1`, the activity change, positive = activation was inactive: -34.6%.

`CC(=O)Nc1cc([As](=O)(O)O)ccc1O`: the activity change, positive = activation is inactive: 2.59%.

As for `C=CCOC(Cn1ccnc1)c1ccc(Cl)cc1Cl` (stereo not drawn), the activity change, positive = activation is inactive: -26.4%.

With `C=CCN1CC[C@]23CCCC[C@H]2[C@H]1Cc1ccc(O)cc13`, the activity change, positive = activation was inactive: -10.5%.

On to `FC(F)(F)c1cccc(C2=CCN(CCc3ccc4ccccc4c3)CC2)c1`, for which the activity change, positive = activation was inactive: -7.69%.

For `Nc1ccc([As](=O)(O)O)cc1`, the activity change, positive = activation is inactive: -2.5%.

With `O=C(COc1ccc(Cl)cc1)Nc1ccc(Cl)cc1C(=O)c1ccccc1`, the activity change, positive = activation was inactive: -3.77% [at 57.5 µM, percent change from vehicle, -100% = no light].

With `Cc1c(C(c2ccc(F)cc2)c2c(O)c3ccccc3oc2=O)c(=O)n(-c2ccccc2)n1C` (stereo not drawn), the activity change, positive = activation is inactive: -26.6%.

In the case of `CCOP(=O)(NC(C)C)Oc1ccc(SC)c(C)c1` (stereo not drawn), the activity change, positive = activation was inactive: 0.43% [at 116 µM].

With `O=C1CC(c2c(F)cccc2Cl)c2c(c3ccccc3oc2=O)O1` (stereo not drawn), the activity change, positive = activation is inactive: 3.72% [at 57.5 µM, percent change from vehicle, -100% = no light].

As to `O=c1[nH]c2ccc(Cl)cc2c(N[C@@H]2CN3CCC2CC3)c1-c1nc2ccccc2[nH]1`, the activity change, positive = activation was inactive: -13.6%.

With `S=C(SSC(=S)N1CCCCC1)N1CCCCC1`, the activity change, positive = activation is inactive: -12.3%.

With `CC1OC(C)OC(C)O1` (stereo not drawn), the activity change, positive = activation is inactive: -2.01%.

As to `Cc1nnc(NC(=O)c2cccn(Cc3ccccc3F)c2=O)s1`, the activity change, positive = activation was inactive: 16.1% [at 57.5 µM, percent change from vehicle, -100% = no light].
